Screen size: about 310,000 compounds; about 2,200 (0.71%) showed an effect of 50% or more. Effects have a minus sign here. The list shows a part of the results.
Molecular target: human ether-à-go-go-related gene (hERG) potassium channel (human, UniProt Q12809)
Assay: primary screen, population patch clamp on CHO cells stably expressing hERG

Chain of human ether-à-go-go-related gene (hERG) potassium channel (Q12809 whole entry, looked up): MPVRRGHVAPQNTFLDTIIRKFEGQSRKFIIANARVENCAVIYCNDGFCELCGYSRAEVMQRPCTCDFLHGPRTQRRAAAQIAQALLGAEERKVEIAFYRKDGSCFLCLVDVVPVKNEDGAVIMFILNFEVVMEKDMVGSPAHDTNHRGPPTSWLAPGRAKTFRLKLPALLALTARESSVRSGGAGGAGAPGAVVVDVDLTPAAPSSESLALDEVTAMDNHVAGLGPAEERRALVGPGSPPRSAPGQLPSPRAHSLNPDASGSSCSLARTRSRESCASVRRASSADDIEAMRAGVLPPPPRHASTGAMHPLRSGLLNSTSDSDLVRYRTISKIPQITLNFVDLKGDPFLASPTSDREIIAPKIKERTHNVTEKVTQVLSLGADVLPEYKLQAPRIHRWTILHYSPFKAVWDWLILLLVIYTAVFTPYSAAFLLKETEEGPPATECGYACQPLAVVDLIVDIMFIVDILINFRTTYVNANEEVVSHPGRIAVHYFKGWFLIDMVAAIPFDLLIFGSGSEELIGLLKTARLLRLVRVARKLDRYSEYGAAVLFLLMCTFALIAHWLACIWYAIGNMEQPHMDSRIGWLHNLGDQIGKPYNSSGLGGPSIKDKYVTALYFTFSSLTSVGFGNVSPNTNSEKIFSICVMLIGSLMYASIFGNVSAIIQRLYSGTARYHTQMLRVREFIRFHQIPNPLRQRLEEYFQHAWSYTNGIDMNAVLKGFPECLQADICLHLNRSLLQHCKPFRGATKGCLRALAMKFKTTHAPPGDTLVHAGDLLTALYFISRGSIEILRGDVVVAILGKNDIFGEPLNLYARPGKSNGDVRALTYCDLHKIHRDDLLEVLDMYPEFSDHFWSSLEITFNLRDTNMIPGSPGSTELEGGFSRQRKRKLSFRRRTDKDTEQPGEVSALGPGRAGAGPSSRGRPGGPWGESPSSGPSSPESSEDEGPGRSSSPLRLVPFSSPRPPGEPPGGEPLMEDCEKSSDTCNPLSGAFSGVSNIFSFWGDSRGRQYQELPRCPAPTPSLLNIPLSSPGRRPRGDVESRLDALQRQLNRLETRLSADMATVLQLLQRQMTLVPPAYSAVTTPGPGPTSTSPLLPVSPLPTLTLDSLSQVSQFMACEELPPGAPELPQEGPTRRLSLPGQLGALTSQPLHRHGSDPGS

Row | Structure (SMILES) | hERG current change (%, negative = inhibition) at 1uM
1 | CCOc1ccccc1N1CCN(C(=O)NCc2ccc(F)cc2)CC1 | 4.74%
2 | Cc1c(C(=O)Nc2ccc(-c3nnc4n3CCCCC4)cc2)oc2c1ccc1ccccc12 | 11.1%
3 | C=CCn1c([O-])c(C(C)=O)c(=O)[nH]c1=O.C[NH+](C)C | 8.55%
4 | CSCc1cc(N(C)C)nc(SCc2ccc(Cl)cc2Cl)n1 | 12.2%
5 | O=C(c1ccc(S(=O)(=O)N2CCCC2)cc1)N1CCCCC1 | 10.8%
6 | O=C(N=Nc1c(O)n(Cc2ccccc2)c2ccccc12)c1ccncc1 | 6.56%
7 | CN1CC(=O)Nc2ccc(Br)cc2C1=O | 15.5%
8 | N=c1oc2cc(O)ccc2cc1C(=O)Nc1nc2ccccc2s1 | 13.4%
9 | Cc1nc(C(=O)N/N=C/c2[nH]ncc2Br)cs1 | 9.54%
10 | COc1ccc(C2CC(c3cccc(OC)c3OC)n3nnnc3N2)cc1 (centres unmarked) | -4.26%
11 | O=C(CN1CCOCC1)NN1CC(=O)N(c2ccc(Cl)cc2)CC1=O | 14.9%
12 | CCN(CC)S(=O)(=O)c1cc(C(=O)Nc2ccccn2)ccc1C | 1.63%
13 | CCC(C)c1ccccc1OCCn1ccnc1.O=C(O)C(=O)O (centres unmarked) | 3.68%
14 | Cc1ccc(C(=O)C(C)N(C(=O)c2ccc(Cl)cc2Cl)N2C(=O)CCCC2=O)cc1 (centres unmarked) | -5.09%
15 | Cc1ccc(NC(=O)C2(NC(=O)c3ccccn3)CCCCC2)cc1Br | 10.8%
16 | COc1cc(NC(=O)Cn2cnc(S(=O)(=O)N3CCCCC3)c2)cc(OC)c1OC | 10.3%
17 | CCC(Sc1nc2n[nH]c(C)c2c(=N)n1-c1ccc(C)c(Cl)c1)C(=O)N1CCOCC1 (centres unmarked) | -0.0071%
18 | O=C1NC(CCc2ccccc2)C(=O)N1Cc1cccc2ccccc12 (centres unmarked) | 12.8%
19 | CCOc1ccc(NC(=O)c2cccc(NC3=NC4CS(=O)(=O)CC4S3)c2)cc1 (centres unmarked) | 20.7%

Row | Structure (SMILES) | hERG current change (%, negative = inhibition) at 1uM
20 | O=C1CN(S(=O)(=O)c2ccc(Br)cc2)c2ccccc2N1 | -0.0372%
21 | COc1ccc2c3c([nH]c2c1)C(C)N(C(C)=O)CC3 (centres unmarked) | 11.6%
22 | COc1cc(O)ccc1C=O | 3.19%
23 | Cc1cccc(C)c1NC(=O)N1CCC(N2CCCCC2)CC1 | 11.7%
24 | O=C(CNC(=O)N1CC(=O)Nc2ccccc21)Nc1cccc(F)c1 | 8.7%
25 | Cc1nc2ccc(P(=O)(O)O)cc2s1 | 13.2%
26 | O=C(CSc1nnc2ccccn12)Nc1ccc2c(c1)OCCO2 | 5.15%
27 | C/C=N/NC(=O)c1cc(Br)ccc1O | 9.07%
28 | CN1CCN(c2ccc([N+](=O)[O-])c(-n3nc(-c4ccccc4)c4ccccc4c3=O)c2)CC1 | 2.21%
29 | CC(=O)N1N=C(c2c(-c3ccccc3)c3cc(C)ccc3[nH]c2=O)CC1c1ccco1 (centres unmarked) | 7.98%
30 | CC(C)CCNC(=O)COc1ccc2c(c1)C(=O)CC(C)(C)O2 | 11.6%
31 | CCOc1ccccc1Nc1cc2n(c(=O)n1)CCc1cc(OC)c(OC)cc1-2 | 13.6%
32 | Nc1ccccc1-c1nnc(-c2ccccc2N)n1N | 9.04%
33 | COc1ccc(C(OCC(O)CN(C)C2CCCCC2)c2ccc(OC)cc2)cc1 (centres unmarked) | -29.3%
34 | NS(=O)(=O)c1ccc(N=Cc2c(O)n(-c3nccs3)c(=O)c3ccccc23)cc1 | 12.2%
35 | CCOC(=O)c1sc(N)c(C(N)=O)c1C | 12%
36 | COCCNC(=S)N1CCCN(c2nc3cc(C)ccc3cc2C#N)CC1 | 3.65%
37 | Cc1ccc(OCCC(=O)Nc2ccccc2C(=O)NC2CC2)cc1 | 5.49%
38 | COc1ccc(CCn2c(=N)c(C(=O)NCCN3CCOCC3)cc3c(=O)n4cccc(C)c4nc32)cc1OC | -44.4%

Row | Structure (SMILES) | hERG current change (%, negative = inhibition) at 1uM
39 | C=CCNC(=S)Nc1ccccc1-c1nnc2n1CCCCC2 | 16.2%
40 | CC(C)(C)C1CCc2c(C(=O)NNC(=O)CCCC(=O)O)csc2C1 (centres unmarked) | 10.6%
41 | COc1ccc(CN(C)C(=S)Nc2ccc(Cl)cc2)cc1 | 17.3%
42 | COc1ccc(C(c2c(O)ccc3ccccc23)N2CCOCC2)c(OC)c1 (centres unmarked) | 18.7%
43 | O=C(NCc1cccnc1)Nc1cc(Cl)cc(Cl)c1 | 5.75%
44 | O=C(NCC1CCCO1)c1ccc(NS(=O)(=O)c2cccc([N+](=O)[O-])c2)cc1 (centres unmarked) | 5.71%
45 | O=C(COC(=O)/C=C/c1cccs1)Nc1ccccc1Cl | 10.4%
46 | Cc1cc(NC(=O)CSc2nnc(NC(=O)C3CC(=O)N(c4ccccc4C)C3)s2)no1 (centres unmarked) | 10.1%
47 | COc1cccc(NC(=O)CN(C)C(=O)c2ccc(-n3cncn3)c([N+](=O)[O-])c2)c1 | -5.36%
48 | O=C(O)c1ccc(Cl)c(S(=O)(=O)N2CCCCCC2)c1 | -2.42%
49 | COc1cc(C(=O)OCC(=O)NCc2ccccc2)cc(NC(=O)c2ccco2)c1OC | 9.14%
50 | COc1ccc(C2CC(c3ccc([N+](=O)[O-])cc3)=NN2C(C)=O)cc1 (centres unmarked) | -7.15%
51 | CCN(Cc1ccccc1)C(c1ccc(Cl)cc1)c1nnnn1C(C)(C)C (centres unmarked) | 7.08%
52 | CCCSc1nnc(CSc2nc3nc(C)cc(C)n3n2)o1 | 10.6%
53 | COc1ccc(OC)c(S(=O)(=O)N2CCC(C(=O)NCc3ccccc3)CC2)c1 | 3.23%
54 | O=C(NCc1ccc(OC(F)(F)F)cc1)C1CC(c2cccc(F)c2)=NO1 (centres unmarked) | 1.66%
55 | CN(c1ccc(OCC(=O)OCC(=O)Nc2c(F)c(F)c(F)c(F)c2F)cc1)S(=O)(=O)c1ccc(F)cc1 | 21.9%
56 | COc1c(C(=O)Nc2c(C)n(C)n(-c3ccccc3)c2=O)ccc2ccccc12 | -1.91%

Source: article PMC4336329 (PLoS ONE, 2015)
